Experimental data reported in article PMC12820563.
The list shows a part of the results. The list includes weakly bound sequences.

Target: T1, MBP-FoxP3dN (UniProt Q99JB6)
T1 sequence: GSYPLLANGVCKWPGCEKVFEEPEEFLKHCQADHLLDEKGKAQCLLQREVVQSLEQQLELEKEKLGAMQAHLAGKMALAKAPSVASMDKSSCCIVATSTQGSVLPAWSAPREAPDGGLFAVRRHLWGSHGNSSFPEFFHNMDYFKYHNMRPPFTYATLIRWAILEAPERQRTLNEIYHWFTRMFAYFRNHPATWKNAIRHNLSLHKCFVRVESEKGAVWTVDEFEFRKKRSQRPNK
Assay: PD-seq (MBP pull-down with sequencing)
Conditions: 20 mM Tris-HCl pH 7.5, 100 mM NaCl, 1.5 mM MgCl2, 0.4 uM protein, 0.1 uM dsDNA library, 30 min, room temperature, amylose pull-down; high values mean tight binding; double strand, one strand shown

Sequence | binding signal (RPM ratio (pull-down/input))
GATGATTGTTCTCCCAGCTGATGAATTGCTCTCCTCGAGTAAACAAATTTTCCTAATCTTTCTGTTCAAGCGCCATCTAC | 0.424
GATGATTGTTCTCCCAGCTGATGAATTTTGGAGCTCGAGTAAACAAATTTTCCTAATCTTTCTGTTCAAGCGCCATCTAC | 0.219
GATGATTGTTCTCCCAGCTGATGAATTACGAACATCGAGTAAACAAATTTTCCTAATCTTTCTGTTCAAGCGCCATCTAC | 0.543
GATGATTGTTCTCCCAGCTGATGAATTGTAATCGTCGAGTAAACAAATTTTCCTAATCTTTCTGTTCAAGCGCCATCTAC | 0.983
GATGATTGTTCTCCCAGCTGATGAATTCTACGACTCGAGTAAACAAATTTTCCTAATCTTTCTGTTCAAGCGCCATCTAC | 0.299
GATGATTGTTCTCCCAGCTGATGAATTTTCGGAGTCGAGTAAACAAATTTTCCTAATCTTTCTGTTCAAGCGCCATCTAC | 0.22
GATGATTGTTCTCCCAGCTGATGAATTCTCGAATTCGAGTAAACAAATTTTCCTAATCTTTCTGTTCAAGCGCCATCTAC | 0.614
GATGATTGTTCTCCCAGCTGATGAATTGTCTCGCTCGAGTAAACAAATTTTCCTAATCTTTCTGTTCAAGCGCCATCTAC | 0.359
GATGATTGTTCTCCCAGCTGATGAATTACAAACATCGAGTAAACAAATTTTCCTAATCTTTCTGTTCAAGCGCCATCTAC | 3.56
GATGATTGTTCTCCCAGCTGATGAATTGTAGTGGTCGAGTAAACAAATTTTCCTAATCTTTCTGTTCAAGCGCCATCTAC | 1.04
GATGATTGTTCTCCCAGCTGATGAATTTTTATCATCGAGTAAACAAATTTTCCTAATCTTTCTGTTCAAGCGCCATCTAC | 0.467
GATGATTGTTCTCCCAGCTGATGAATTCGGAGCTTCGAGTAAACAAATTTTCCTAATCTTTCTGTTCAAGCGCCATCTAC | 0.283
GATGATTGTTCTCCCAGCTGATGAATTACCACGTTCGAGTAAACAAATTTTCCTAATCTTTCTGTTCAAGCGCCATCTAC | 0.39
GATGATTGTTCTCCCAGCTGATGAATTCCTAGTCTCGAGTAAACAAATTTTCCTAATCTTTCTGTTCAAGCGCCATCTAC | 0.258
GATGATTGTTCTCCCAGCTGATGAATTGTCTAGATCGAGTAAACAAATTTTCCTAATCTTTCTGTTCAAGCGCCATCTAC | 0.308
GATGATTGTTCTCCCAGCTGATGAATTGTAGATTTCGAGTAAACAAATTTTCCTAATCTTTCTGTTCAAGCGCCATCTAC | 0.564
GATGATTGTTCTCCCAGCTGATGAATTTCGGCTTTCGAGTAAACAAATTTTCCTAATCTTTCTGTTCAAGCGCCATCTAC | 1.1
GATGATTGTTCTCCCAGCTGATGAATTCGTTGGTTCGAGTAAACAAATTTTCCTAATCTTTCTGTTCAAGCGCCATCTAC | 3.75
